Laboratory results as given in PubChem BioAssay AID493208 (National Center for Advancing Translational Sciences (NCATS), 2011).
Hit rate of the full screen: of about 44,000 compounds, about 340 (0.77%) were called active. Not shown: some 5% with an inconclusive outcome. Calls follow the shape of the dose curve; as a rule, active = well fitted inhibition curve with a large enough effect; inconclusive = small, poorly fitted or top-dose-only effect; inactive = flat fitted curve, though single readings scatter. The list shows a part of the results.

Test: Acumen qHTS Assay for Inhibitors of the mTORC1 Signaling Pathway in MEF (Tsc2-/-, p53-/-) Cells: Sytravon;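 also: plate controls were DMSO for no effect and rapamycin for full effect; nearly all actives have a fitted effect of over 50% in size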
Conditions: phospho-rpS6 immunofluorescence/PI, 24 h; series mostly up to 38.3 µM; activity change, negative = inhibition: at the top concentration
Procedure, shortened: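 Tsc2-/-, p53-/- MEFs (empty-vector stable line) in DMEM + 10% FBS were treated with compounds 24 h at 37 degree Celsius, fixed, and immunostained for phospho-rpS6 (Alexa-488) with propidium iodide counterstain. Laser-scanning cytometry gave % positive cells, normalized against 7.5 nM rapamycin and DMSO.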

Activity change, negative = inhibition, inactive:
CN(C1CCCCC1)S(=O)(=O)c1ccc2c(c1)c(=O)c(C(=O)N1CCN(c3ccc(F)cc3)CC1)cn2C 0.133%
CC(C)c1cc(C(=O)NCc2ccc(F)cc2)no1 -9.03%
CCS(=O)(=O)n1nc(-c2ccco2)nc1NCc1ccc(C(C)C)cc1 -1.68%
CCc1ccccc1NC(=O)c1nn(-c2ccc(C)cc2)c(=O)c2c1c1ccccc1n2C -23.2%
CC(=O)Nc1ccc(NC(=O)C(NC(=O)C2CCC(C)CC2)C(C)C)cc1 (configuration not stated) 4.31%
COc1ccc(C)cc1NC(=O)C1CCC(CNS(=O)(=O)c2ccc3c(c2)CCCC(=O)N3)CC1 (configuration not stated) -24.5%
Cc1ccc(-n2cnc3cc(C(=O)NC4CCCCCC4)ccc32)c(C)c1 -25.8%
CCc1ccc(Cn2nnc3c(=O)[nH]c(C4CCCN(C(=O)c5cccc(Cl)c5)C4)nc32)cc1 (configuration not stated) -6.23%
O=C(Nc1ccc(F)cc1)c1ccc(CN2CC(=O)N3CCCCC3C2=O)cc1 (configuration not stated) -1.42%
Cc1cc(C)cc(NC(=O)Cn2nc(N3CCN(c4ccccc4)CC3)ccc2=O)c1 -15.8%
CC(=O)c1c(C)n(S(=O)(=O)c2ccc(Cl)cc2)c2ccc(NS(=O)(=O)c3ccc(Cl)cc3)cc12 -4.46%
CC(C)c1ccc(OCC(=O)Nc2cc(-c3ccccc3)no2)cc1 -8.18%
COc1ccc(S(=O)(=O)NCCc2sc(-c3cccnc3)nc2C)cc1OC -0.534%
COc1cc(CN(C(=O)c2ccccc2Br)c2ccccn2)cc(OC)c1OC -0.445%
CCc1ccc(NC(=O)c2cccc(N3CCCS3(=O)=O)c2)cc1 -3.64%
Cc1ccc(NC(=O)CN2C(=O)C(c3ccc(C)cc3)=NC23CCCCCC3)cc1 -0.669%
Cc1ccc(C)c(N2CCN(C(=O)CCS(=O)(=O)c3ccc4c(c3)oc(=O)n4C)CC2)c1 -16.9%
COc1ccc2c(c1)c(=O)c(S(=O)(=O)c1ccc(Cl)cc1)cn2Cc1cc(C)ccc1C -9.5%
CCOc1cc2c(cc1OCC)C(CC(=O)OC)N(C(=O)Nc1cc(OC)ccc1OC)CC2 (configuration not stated) 3.12%
CCN(CC)C(=O)c1sc2c(c1C)c(=O)n(CCc1ccccc1)c(=O)n2Cc1ccc(C)cc1 -7.05%
CCN1CCSc2ccc(C(=O)NCc3ccc(F)cc3)cc21 -7.68%
Cc1ccc(CNC(=O)CCSCc2cnn(-c3ccccc3)c2-n2cccc2)cc1 -0.621%
COc1ccc(NCc2cccn2-c2nnc(N3CCOCC3)s2)cc1OC 5.94%
COc1ccc(CNC(=O)Cn2ncc3c(=O)oc4ccccc4c32)c(OC)c1 -7.78%
Cc1csc2nc(COC(=O)c3cccc(NC(=O)COc4ccccc4Cl)c3)cc(=O)n12 0%
CCc1cccc(NC(=O)Cc2nc(-c3ccc(OC)cc3)no2)c1 -7.86%
COCCCNC(=O)c1nn(C)c2c1CS(=O)(=O)c1ccccc1-2 -18.4%
COC(=O)CCCn1c(-c2ccc(C)cc2)c(C)n2c3c(=O)n(C)c(=O)n(C)c3nc12 -2.6%
COc1ccc(CNC(=O)CC2N=C3c4ccccc4N=C(SCC(=O)Nc4ccc(C(C)C)cc4)N3C2=O)cc1 (configuration not stated) -0.563%
COc1ccc(-c2cn3c(n2)sc2cc(C(=O)NC(C)C45CC6CC(CC(C6)C4)C5)ccc23)cc1 (configuration not stated) 6.05%
COCc1cc(C)nc2sc3c(c12)NC(c1ccccc1C(=O)O)N(c1cccc(C(F)(F)F)c1)C3=O (configuration not stated) -19.2%
COc1cc([N+](=O)[O-])ccc1NC(=O)c1nc2ccccc2n(C)c1=O -1.07%
Cc1ccc(S(=O)(=O)c2nc(-c3cccc(Br)c3)oc2N2CCCCCC2)cc1 -7.48%
O=C(CSc1nnc2[nH]c(=O)cc(-c3ccccc3)n12)Nc1ccc(OC(F)(F)F)cc1 3.14%
CCn1ccc2c(OCC(=O)Nc3ccc(C)c(Cl)c3)cccc2c1=O -0.412%
COc1cccc(N2CCN(C(=O)CCSCc3ccccc3F)CC2)c1 12.5%
CCOC(=O)C1CCN(S(=O)(=O)c2cc3c4c(c2)C(C)C(=O)N4CCC3)CC1 (configuration not stated) -1.26%
Cc1cccc(C(=O)Nc2c(C(=O)N3CCN(c4ccc(F)cc4)CC3)oc3ccccc23)c1 3.4%
O=C(Cc1ccc(Cl)cc1)NCC(c1cccs1)S(=O)(=O)c1ccccc1 (configuration not stated) -6.42%
CCCSc1ncc(Cl)c(C(=O)Nc2sc(C(C)=O)c(C)c2C(=O)OCC)n1 7.41%
Cc1cc(=O)n(Cc2c(F)cccc2Cl)c2c1c(C)nn2-c1cccc(F)c1 0.851%
Cc1ccc(S(=O)(=O)N(CC(=O)Nc2ccc(F)cc2F)Cc2ccc(F)cc2)cc1 -21.7%
CC(=O)Nc1ccc(NC(=O)c2cc(CN3CCCC3)on2)cc1 -4.65%
Cc1ccc(C)c(NC(=O)CSc2nnc3[nH]c(=O)cc(-c4ccccc4)n23)c1 0.365%
COc1cc(C(=O)NC(c2ccccc2Cl)c2cc(Cl)c3cccnc3c2O)cc(OC)c1OC (configuration not stated) -20.3%
COc1ccccc1C(=O)Nc1cccc(C(=O)OCc2cc(=O)n3c4c(sc3n2)CCCC4)c1 0%
CCOc1ccc(NC(=O)Cn2c(=O)n(CC3CCC(C(=O)NCCc4ccccc4)CC3)c(=O)c3ccccc32)cc1 (configuration not stated) 7.72%
COc1ccc(NC(=O)CSc2oc(-c3ccco3)nc2S(=O)(=O)c2ccc(C)cc2)c(OC)c1 -0.875%
CN(C)S(=O)(=O)c1ccc2c(c1)N(CC(=O)Nc1cccc(C(F)(F)F)c1)C(=O)CS2 8.39%
Cc1c(CNC(C)CCc2ccccc2)c(C(=O)O)c(C)n1Cc1ccc(F)cc1 (configuration not stated) -0.39%
CCOC(=O)c1ccccc1NC(=O)NCc1c(-n2cccc2)sc2c1CCCC2 2.58%
CCOc1ccc(NC(=O)C(CC(C)C)N2Cc3ccccc3C2=O)cc1 (configuration not stated) -15%
CC(C)(C)OC(=O)N1CCC(N2CCN(Cc3ccccc3)C(=O)C2=O)CC1 14.8%
Cc1onc(-c2ccccc2Cl)c1C(=O)Oc1ccccc1F 11.2%
COc1cccc(C2c3c(oc4cc(C)cc(C)c4c3=O)C(=O)N2CCc2ccc(OC)c(OC)c2)c1 (configuration not stated) -8.46%
CCCc1cc(=O)n2c(C(=O)Nc3ccc(OCC)cc3)c(C(=O)Nc3ccc(C)cc3)sc2n1 -0.132%
COc1ccccc1CNC(=O)CCC1N=C2c3ccccc3N=C(SCC(=O)Nc3ccc(F)cc3)N2C1=O (configuration not stated) -5.98%
Cc1ccc2c(c1)c1c(c(=O)n(-c3cccc(Cl)c3)c(=O)n1CC(=O)NCCC1=CCCCC1)n2C 3.6%
CCn1c(SCc2ccccc2C)nc(=O)c2c(C(=O)OC)cc(C3CC3)nc21 -18.6%
CN(CC(=O)NCc1ccc(Cl)cc1)S(=O)(=O)c1ccc2[nH]c3c(c2c1)CCCC3 -3.36%
COc1ccc(CNc2nc(-c3ccccc3)nn2S(=O)(=O)c2ccccc2)cc1 11.6%
CCOC(=O)C1CCC(CN(Cc2ccc(OC)cc2)S(=O)(=O)c2ccc(F)c(C(=O)Nc3ccc(C)c(C)c3)c2)CC1 (configuration not stated) 15.3%
COc1ccc(-n2c(Cc3ccccc3)nnc2SCc2nc(-c3cccs3)no2)cc1 6.44%
O=c1cc(CSc2ncn[nH]2)[nH]c2ccc(F)cc12 -9.22%
CN(C)C1(CNC(=O)COc2ccc([N+](=O)[O-])cc2)CCCCC1 -7.02%
CCN(CC)S(=O)(=O)c1ccc2c(c1)N(CC(=O)N1CCN(c3cccc(Cl)c3)CC1)C(=O)CO2 -7.11%
CCC1CN(C(=O)N2CCC(C(=O)NCCc3cc(OC)ccc3OC)CC2)c2ccccc2O1 (configuration not stated) 0.521%
CCN(C(=O)Cn1c(=O)n(CCCS(=O)(=O)C2CCCCC2)c(=O)c2ccccc21)c1cccc(C)c1 -3.99%
COc1cccc(-n2cc(C(=O)Nc3cccc(C(F)(F)F)c3)c3ccccc3c2=O)c1 7.97%
CC(C)Oc1ccc(CNC(=O)c2ccc(CS(=O)c3cccc(Cl)c3)o2)cc1 (configuration not stated) -8.02%
COc1ccccc1N1CCN(C(=O)Cn2ncc3ccsc3c2=O)CC1 10.9%
Cc1ccc(NC(=O)N2CCc3cc(S(=O)(=O)N4CCC(C)CC4)ccc32)cc1 -1.18%
CC1CCN(C(=O)Cn2c(=O)n(CCCCCC(=O)NCc3ccccc3Cl)c(=O)c3sccc32)CC1 0.119%
CC(=O)Nc1cc(-c2nc3cc(Cl)ccc3o2)ccc1C 0.167%
Cc1ccc(Cl)cc1Nc1nn2c(=O)c3ccc(C(=O)Nc4ccc(F)cc4)cc3nc2s1 -0.483%
Cc1cc(Cl)ccc1NC(=O)Cn1nc(C)c2c(C)n(-c3ccccc3)nc2c1=O 0.532%
CC1=C(C(=O)Nc2ccccc2)C(c2ccccc2C)n2nc(SCC(=O)c3ccc(C)cc3)nc2N1 (configuration not stated) -0.155%
COCCCNc1nc2c(S(=O)(=O)c3ccccc3)nnn2c2ccc(Cl)cc12 -1.44%
O=C(NCc1cccs1)c1nn(-c2ccccc2Cl)nc1CO 2.23%
Cc1[nH]n(-c2ccccc2)c(=O)c1C(c1cc(Cl)ccc1O)c1c(C)[nH]n(-c2ccccc2)c1=O 14.2%
CCOC(=O)c1ccccc1NC(=O)N1CCN(Cc2cc(=O)n3nc(-c4ccccc4)sc3n2)CC1 0%
CCOc1ccc(-c2cc(CCCC(=O)NCCc3ccc(Cl)cc3)no2)cc1 -0.321%
O=C(NCCc1csc(-c2ccc(C(F)(F)F)cc2)n1)c1ccc(F)c(F)c1 -22.5%
Cc1cccc(NC(=O)CSc2nc(-c3cccs3)cc(C(F)(F)F)c2C#N)c1C -20.1%
COC(=O)c1c(-c2cccs2)csc1NC(=O)c1cccc(Cl)c1 -7.98%
COC(=O)c1c(-c2cccs2)csc1NC(=O)c1ccc(Br)cc1 1.71%
CCN(c1cccc(C)c1)S(=O)(=O)c1ccc(-n2cccn2)cc1 -8.75%
CCc1ccc(NC(=O)CCS(=O)(=O)c2cc3c(cc2Cl)NC(=O)CO3)cc1 7.87%
CCN(c1ccccc1)S(=O)(=O)c1cc(Br)cc2c1N(C(=O)C1CC1)CC2 -15.4%
Cc1ccc(-c2cc(C(=O)NCc3cnn(C)c3C)c3ccccc3n2)cc1C -6.73%
Cc1ccc(C(=O)N2CCc3cc(CNC(=O)CSc4ccccc4)ccc32)cc1 -13.5%
N#Cc1ccc(S(=O)(=O)N2CCC(Oc3cccc(C(F)(F)F)c3)CC2)cc1 -11.3%
